Article PMC6919601, “Identification of Plasmodium dipeptidyl aminopeptidase allosteric inhibitors by high throughput screening” (PLoS ONE, 2019)
About 230 (0.21%) of roughly 110,000 compounds showed an effect of 50% or more. This is one part of the list.

Target: DPAP1 (Plasmodium falciparum, UniProt Q8IIJ9)
Test: primary screen, percent inhibition; read by cleavage of a fluorogenic dipeptide substrate; higher = more effect of the substance
Design: species or system P. falciparum D10 trophozoite lysates; single well
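Note: 30 min substrate incubation versus DMSO and 10 µM JCP410 controls.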

DPAP1, sequence (Q8IIJ9 whole entry, looked up): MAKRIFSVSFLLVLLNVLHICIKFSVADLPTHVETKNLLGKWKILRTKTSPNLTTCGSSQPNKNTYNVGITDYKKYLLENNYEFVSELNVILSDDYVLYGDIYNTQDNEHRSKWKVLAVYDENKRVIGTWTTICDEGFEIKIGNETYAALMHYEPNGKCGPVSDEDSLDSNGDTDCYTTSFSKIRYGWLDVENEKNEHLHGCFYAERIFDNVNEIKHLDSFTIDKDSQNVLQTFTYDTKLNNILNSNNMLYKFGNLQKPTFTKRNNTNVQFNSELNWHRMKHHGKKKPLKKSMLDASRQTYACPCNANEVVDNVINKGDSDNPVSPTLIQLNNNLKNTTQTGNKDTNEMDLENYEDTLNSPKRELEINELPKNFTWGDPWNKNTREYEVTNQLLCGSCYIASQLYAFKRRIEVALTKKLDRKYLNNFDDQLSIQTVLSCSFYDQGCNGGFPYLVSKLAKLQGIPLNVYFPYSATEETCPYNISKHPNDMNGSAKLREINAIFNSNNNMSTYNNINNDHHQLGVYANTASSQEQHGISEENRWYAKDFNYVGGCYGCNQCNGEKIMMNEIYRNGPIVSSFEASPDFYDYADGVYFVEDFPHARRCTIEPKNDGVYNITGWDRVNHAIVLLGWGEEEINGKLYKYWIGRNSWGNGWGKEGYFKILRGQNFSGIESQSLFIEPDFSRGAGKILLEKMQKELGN

First: O=C(NC12CC3CC(CC(C3)C1)C2)N1CCN(C(=O)C2CCCO2)CC1 (centres unmarked)
Second: O=C(NC12CC3CC(CC(C3)C1)C2)C1CCCO1 (centres unmarked)
The “% Inhibition @ 10 uM” value of the first is higher: 1.64% for the first, 1.57% for the second.

First: COc1ccc(NC2=NC(=O)/C(=C/c3ccc(N4CCCCC4)o3)S2)cc1
Second: COc1ccc(-n2cccc2/C=C2\C(=N)N3N=C(C(C)C)SC3=NC2=O)cc1
The “% Inhibition @ 10 uM” value of the first is lower: -16.1% for the first, 0.208% for the second.

First: COc1ccc(-c2[nH]c(-c3ccc(C(=O)O)cc3)nc2-c2ccccc2)cc1OC
Second: COc1ccc(-c2nnc(SCC(N)=O)n2-c2cccc(C(F)(F)F)c2)cc1OC
The “% Inhibition @ 10 uM” value of the first is higher: -1.6% for the first, -4.97% for the second.

First: NC(=O)c1cc(-c2ccc(Cl)cc2)no1
Second: Nc1cc(-c2ccc(Br)cc2)[nH]n1
The “% Inhibition @ 10 uM” value of the first is higher: 9.47% for the first, 3.96% for the second.

Compared with `COC(=O)c1ccc(CN2CCCC2)cc1`, `CCCCNC(=O)c1ccc(CN2CCOCC2)cc1` is lower in “% Inhibition @ 10 uM” value: -5.31% for the first, -6.43% for the second.

First: CN(C(=O)c1ccccc1Br)c1ccccc1
Second: O=C(NCCC(c1ccccc1)c1ccccc1)c1cccnc1Cl
The “% Inhibition @ 10 uM” value of the first is higher: 1.83% for the first, -0.865% for the second.

First: CCS(=O)(=O)N1CCC2(CC1)OC(=O)C(C)=C2C(=O)NC1CCN(Cc2ccccc2)CC1
Second: CCC(Cc1ccccc1)NC(=O)C1CCC(C/N=c2/c(N3CCCC3)c(O)c2=O)CC1 (centres unmarked)
The “% Inhibition @ 10 uM” value of the first is higher: 0.00978% for the first, -0.447% for the second.

First: CSc1ccc(CN2CCN(c3cccc(Cl)c3)CC2)cc1
Second: COc1ccc(N2CCN(C(=O)c3ccccc3N)CC2)cc1
The “% Inhibition @ 10 uM” value of the first is higher: 0.847% for the first, -6.43% for the second.

First: CC1CC(C)CN(Cc2nc3c(c(=O)n(C)c(=O)n3C)n2CC(N)=O)C1 (centres unmarked)
Second: CC(C)n1c(N2CCNCC2)nc2c1c(=O)n(C)c(=O)n2C
The “% Inhibition @ 10 uM” value of the first is higher: -3.23% for the first, -3.86% for the second.

First: O=C(Nc1ccc(F)c(F)c1)c1cccc(OC(F)F)c1
Second: O=C(Nc1ccc(Cl)c(Cl)c1)c1cccc(Br)c1
The “% Inhibition @ 10 uM” value of the first is lower: -4.15% for the first, -0.197% for the second.

Going from `CC(=O)c1ccc(C(=O)N(CCCN(C)C)c2nc3c(F)cccc3s2)cc1` to `COc1ccc(C(=O)Nc2ccc(N(C)C(C)=O)cc2)cc1`, the “% Inhibition @ 10 uM” value rises from -2.95% to -1.96%.

First: Cc1nn(CC(=O)Nc2sc3c(c2C(N)=O)CCCC3)c(C)c1Cl
Second: CC(C)(C)C1CCc2c(sc(NC(=O)COc3ccccc3)c2C(N)=O)C1 (centres unmarked)
The “% Inhibition @ 10 uM” value of the first is higher: 4.31% for the first, 0.161% for the second.

Going from `CCSC1=NSC2=NC(=O)/C(=C\c3cc(OC)c(O)c(OC)c3)C(=N)N12` to `COc1ccc(CCNC(=O)C2CCCN2c2nn3c(=O)cc(C)nc3s2)cc1OC` (centres unmarked), the “% Inhibition @ 10 uM” value rises from 1.07% to 1.38%.

Going from `O=C1CCC(N2Cc3ccccc3C2=O)C(=O)N1` (centres unmarked) to `CC1CCC2C(=O)N(Cc3ccccc3)C(=O)C2C1` (centres unmarked), the “% Inhibition @ 10 uM” value rises from -24.6% to -6.25%.

Going from `CCN(CC)C(=O)C1CCCN(Cc2ccc(Br)o2)C1` (centres unmarked) to `CC1CCCN(CCCNC(=O)CN2N=C(c3ccccc3)CCC2=O)C1` (centres unmarked), the “% Inhibition @ 10 uM” value rises from -0.828% to 3.79%.

Going from `O=C(NCc1ccc2c(c1)OCO2)c1ccc2snnc2c1` to `Cc1ccccc1N1C(=O)c2ccccc2NC1c1ccc2c(c1)OCO2` (centres unmarked), the “% Inhibition @ 10 uM” value rises from -9.25% to -2.67%.

First: CCCOc1cccc(C(=O)Nc2ccc(NC(=O)c3cccs3)cc2)c1
Second: CCCCC(C(=O)Nc1ccc(OC)cc1)N1C(=O)c2ccccc2C1=O (centres unmarked)
The “% Inhibition @ 10 uM” value of the first is lower: -2.31% for the first, -1.07% for the second.

Compared with `Cc1cc2[nH]c3cc(C)c(C)cc3c2cn1`, `C=CCNC(=O)c1c(C)cc(C)cc1C` is higher in “% Inhibition @ 10 uM” value: -7.4% for the first, 2.92% for the second.

Going from `COc1ccc(-c2nc(C#N)c(NCCN(C)C)o2)cc1` to `CCOc1cccc2cc(-c3cn4c(n3)sc3cc(OC)ccc34)c(=O)oc12`, the “% Inhibition @ 10 uM” value rises from -3.23% to -2.92%.

Compared with `CCCCN(C)Cn1[nH]c(=O)ccc1=O`, `CCCCN1C(=O)CC(Sc2ncccc2C(=O)O)C1=O` (centres unmarked) is higher in “% Inhibition @ 10 uM” value: 3.24% for the first, 5.7% for the second.

First: C=CCN1C(=O)CC(C(=O)OCC)=C1C
Second: CCOC(=O)N1CCN(C(=O)CS(=O)(=O)Cc2nc(-c3ccccc3F)oc2C)CC1
The “% Inhibition @ 10 uM” value of the first is higher: 1.72% for the first, -1.89% for the second.

First: Cc1ccc(-n2c(C)cc(C=C3C(=O)c4ccccc4C3=O)c2C)nc1
Second: Cc1ccc2oc(=O)n(CCOc3ccccc3Cl)c2c1
The “% Inhibition @ 10 uM” value of the first is higher: 2.16% for the first, -12.5% for the second.

Compared with `Clc1ccc(-c2nnc(NCCN3CCCC3)c3ccccc23)cc1`, `CC1=C(c2ccc(Cl)cc2)S(=O)(=O)N=C1N1CCC(Cc2ccccc2)CC1` is higher in “% Inhibition @ 10 uM” value: -5.47% for the first, -2.85% for the second.

Compared with `CCOc1ccc(-c2[nH]nc3c2C2(C(=O)Nc4ccccc42)C(C#N)=C(N)O3)cc1OC` (centres unmarked), `COc1ccc(C2C(C#N)=C(N)OC3=C2C(=O)CC(C)(C)C3)cc1COc1ccc(Cl)cc1` (centres unmarked) is higher in “% Inhibition @ 10 uM” value: -1.98% for the first, -0.661% for the second.

Compared with `Cc1cc(O)c(C(=O)/C=C/c2ccc(O)cc2)c(=O)o1`, `Cc1cc(O)c(C2=NCCSC(c3ccccc3Br)C2)c(=O)o1` (centres unmarked) is higher in “% Inhibition @ 10 uM” value: -0.415% for the first, 2.6% for the second.

First: CCN(CC)Cc1c(C=O)sc2c1CCCC2
Second: Cc1nc2sc3c(S)ncnc3c2c2c1CCCC2
The “% Inhibition @ 10 uM” value of the first is lower: -4.21% for the first, 6.1% for the second.

First: O=C(CSc1ccc(-c2cccs2)nn1)N1CCCC1
Second: O=C(COc1ccc(Br)cc1Cl)N1CCN(c2ccccc2F)CC1
The “% Inhibition @ 10 uM” value of the first is lower: -5.26% for the first, -1.63% for the second.

First: CC(C)(C)c1ccc(Oc2coc3cc(O)ccc3c2=O)cc1
Second: CC(C)(C)c1cc(O)c2oc(=O)c(C(=O)O)cc2c1
The “% Inhibition @ 10 uM” value of the first is lower: -8.33% for the first, 6.07% for the second.

Going from `c1ccc(Oc2ccc(-n3nnc(-c4ccccc4)n3)cc2)cc1` to `Cc1ccc(OC(C)C(=O)Nc2ccccc2)cc1` (centres unmarked), the “% Inhibition @ 10 uM” value falls from 0.00706% to -0.95%.

Going from `c1ccc(-c2cn3c4c(sc3n2)CCCC4)cc1` to `CCCCNC(=O)c1sc2nc(-c3ccccc3)cn2c1C`, the “% Inhibition @ 10 uM” value falls from -3.09% to -5.58%.

Compared with `COCc1cc(O)n2nc(SC)nc2n1`, `CCOc1ccc(NC(=O)CSc2nc(O)cc(C(F)(F)F)n2)cc1` is lower in “% Inhibition @ 10 uM” value: 2.31% for the first, -2.68% for the second.

Going from `CC1=C(C)CC(C(=O)Nc2cccc(Cl)c2)C(C(=O)O)C1` (centres unmarked) to `Cc1ccc(N2CC(C(=O)Nc3ccc(Cl)cc3F)CC2=O)cc1` (centres unmarked), the “% Inhibition @ 10 uM” value falls from 0.924% to -1.04%.

Compared with `O=S(=O)(NCCCCCc1nc2ccccc2[nH]1)c1ccc(Cl)c(Cl)c1`, `COCCCN1CC(=O)C(c2nc3ccccc3[nH]2)=C1N` is higher in “% Inhibition @ 10 uM” value: 5.3% for the first, 6.78% for the second.

Going from `Cc1nnc(NC(=O)CC(CN(C)S(=O)(=O)c2ccccc2)c2ccccc2)s1` (centres unmarked) to `Cc1ccccc1S(=O)(=O)Cc1ccc(C(=O)NCc2ccc(Cl)cc2)o1`, the “% Inhibition @ 10 uM” value rises from -2.63% to 1.93%.

First: O=c1c2ccccc2nc(/C=C/c2ccc(Br)cc2)n1CCO
Second: O=C(c1cc(-c2cccs2)nc2ccccc12)N1N=C(C(F)F)CC1(O)C(F)F (centres unmarked)
The “% Inhibition @ 10 uM” value of the first is higher: -1.65% for the first, -7.01% for the second.

First: Cn1ccc(C#CC(=O)c2ccccc2)n1
Second: Cc1cc2ncn(C(=O)CCCOc3ccccc3)c2cc1C
The “% Inhibition @ 10 uM” value of the first is lower: 4.63% for the first, 5.3% for the second.

Going from `Clc1cccc(-n2ncc3c(NCc4cccnc4)ncnc32)c1` to `Cc1ccc(C2=NS(=O)(=O)N(C)C(C(=O)NCc3cccnc3)=C2)cc1`, the “% Inhibition @ 10 uM” value rises from -1.62% to 0.655%.

Going from `CC1=C(c2ccc(C)c(C)c2)S(=O)(=O)N(Cc2ccc(C(=O)N3CCC(C(N)=O)CC3)cc2)C1=O` to `CCOC(=O)C1=C(NC(=O)c2ccc(C)cc2)S/C(=C\c2ccc(OC)c(Cl)c2)C1=O`, the “% Inhibition @ 10 uM” value falls from 5.46% to 1.52%.

Compared with `CCn1cc(C=C2C(=O)NC(=S)NC2=O)c2ccccc21`, `O=C1CSC2(C(=O)Nc3ccccc32)N1c1cccc(C(F)(F)F)c1` (centres unmarked) is lower in “% Inhibition @ 10 uM” value: 9.57% for the first, -2.24% for the second.

Going from `N#CC1=C(N)Oc2cc(N)ccc2C1c1ccc(Br)cc1` (centres unmarked) to `N#CC1=C(N)OC2=C(C(=O)CCC2)C1c1ccoc1` (centres unmarked), the “% Inhibition @ 10 uM” value falls from -0.261% to -2.51%.

Going from `CN(CCCNC(=O)c1cn(C2CCCC2)c(=O)c2c1c1ccccc1n2C)Cc1ccccc1` to `COc1ccc2c(c1)c1c(c(=O)n(Cc3ccccc3)c(=O)n1CC(=O)NCc1ccco1)n2C`, the “% Inhibition @ 10 uM” value rises from -3.39% to 1.02%.

Compared with `CC(C)Sc1nc2c(c(=O)[nH]c(=O)n2C)n1Cc1ccc(Cl)cc1`, `CC(C)Oc1ccc(CNC(=O)Cn2ncc3ccc(Cl)cc32)cc1` is higher in “% Inhibition @ 10 uM” value: -4.49% for the first, 5.39% for the second.

First: O=C(NCCN1CCCC1)c1ccc(Cn2c(SCc3ccc(F)cc3)nc3ccncc32)cc1
Second: O=C(NCc1ccc(C(=O)N2CCC3(CC2)OCCO3)cc1)c1cccc(Br)c1
The “% Inhibition @ 10 uM” value of the first is higher: 4.53% for the first, -0.406% for the second.

Going from `Cc1cc(-c2ccc(S(=O)(=O)NC(C)(C)C)s2)on1` to `COc1ccc(CCNC(=O)c2cc(=O)c3cc(C)ccc3o2)cc1OC`, the “% Inhibition @ 10 uM” value rises from -0.342% to 0.248%.

Going from `CCCCC(NC(=O)C(CCCC)NC(=O)OCc1ccccc1)C(=O)CO` (centres unmarked) to `O=C(N/C(=C/c1cccs1)C(=O)N1CC2CC(C1)c1cccc(=O)n1C2)c1ccccc1` (centres unmarked), the “% Inhibition @ 10 uM” value rises from -7.36% to 14.5%.

Going from `O=[N+]([O-])c1cc2c(cc1CC1CC1(Cl)Cl)OCCO2` (centres unmarked) to `COc1cc2oc(=O)c(CC(=O)N3CCOCC3)c(C)c2cc1Cl`, the “% Inhibition @ 10 uM” value rises from -0.736% to 7.17%.

Going from `Cc1c(CN(C)C(=O)c2cc3nc(-c4ccc(Cl)cc4)cc(C(F)(F)F)n3n2)cnn1C` to `Cc1nn(C)cc1CN(C)C(=O)c1cc2nc(-c3cccs3)cc(C(F)(F)F)n2n1`, the “% Inhibition @ 10 uM” value falls from 5.52% to 0.163%.

First: O=C(Nc1cc(Cl)cc(Cl)c1)C1CCCN1S(=O)(=O)c1ccc(Cl)cc1 (centres unmarked)
Second: Cc1ccc2oc(O)c(C(=O)CC3CCCC3)c(=O)c2c1
The “% Inhibition @ 10 uM” value of the first is higher: -2.44% for the first, -8.78% for the second.

First: CCCN1CCC(NC2CCCc3ccccc32)CC1 (centres unmarked)
Second: Cc1cccc(C)c1-n1ncc(C(=O)NCCc2ccsc2)c1C1CCNCC1
The “% Inhibition @ 10 uM” value of the first is lower: -2.34% for the first, -0.884% for the second.

First: CC1(C)CC(=O)C2=C(C1)N(c1nc[nH]n1)C(N)=C(C#N)C2c1ccccc1 (centres unmarked)
Second: C=CCC(Nc1ccccc1)c1ccco1 (centres unmarked)
The “% Inhibition @ 10 uM” value of the first is higher: -1.93% for the first, -3.14% for the second.

For `COC(=O)/C(=C/C(C#N)=C/N(C)C)C(C)=O`, the “% Inhibition @ 10 uM” value was -3.15%.
